From US12692305 (REVERB THERAPEUTICS, dated 2026)
Blank lines part the entries; values can stand above or below the binder they belong to.

Legend:
human IL-15 [1] = target: T1, human IL-15 (human, UniProt P40933 in part); test: SPR, variant captured on anti-human Fc, IL-15 analyte, single-cycle kinetics, 1:1 fit
T1 construct: also called Premium grade IL-15; GMP grade human IL-15
Procedure: (§1) EDC: 1-ethyl-3-(3-dimethylaminopropyl) carbodiimide hydrochloride; NHS: N-Hydroxysuccinimide; SPR: surface plasmon resonance; EDTA: ethylenediaminetetraacetic acid SPR Supplies Series S Sensor Chip CM5, Biacore amine coupling kit (NHS, EDC and 1 M ethanolamine), and 10 mM sodium acetate buffers were purchased from Cytiva Life Sciences (Marlborough, MA). […] PBS running buffer with 1% Tween20 (PBST) was purchased from Teknova Inc. (Hollister, Calif.). Goat polyclonal anti-human Fc antibody was purchased from Jackson Immuno Research Laboratories Inc. (West Grove, Pa.). EDTA was purchased from Bioshop (Burlington, ON). All SPR assays were carried out using a Biacore T200 Surface Plasmon Resonance instrument (Cytiva Life Sciences, (Marlborough, MA)) with PBST running buffer (with 0.5 M EDTA stock solution added to 3.4 mM final concentration) at a temperature of 25° C. The anti-human Fc capture surface was generated using a Series S Sensor Chip CM5 using the default parameters under the Immobilization Wizard in the Biacore T200 control software which was set to target 3000 resonance units (RUs).
The first flow cell was left empty to use as a blank control. […] The captured antibody surfaces were regenerated twice by 10 mM Glycine pH1.5 for 30 seconds at 30 μL/min. Buffer injections were performed for each analyte injection to be used for referencing.

human IL-15 [2] = target: T1, human IL-15; test: SPR, variant captured on immobilised PD1, IL-15 analyte, single-cycle kinetics, 1:1 fit
T1 sequence (P40933 49-162 limits assumed): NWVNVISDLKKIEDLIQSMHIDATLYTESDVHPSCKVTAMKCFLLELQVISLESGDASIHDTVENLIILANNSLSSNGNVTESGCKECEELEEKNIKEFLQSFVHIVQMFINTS

human IL-15 [3] = target: T1, human IL-15; test: SPR, variant (additional production) captured on anti-human Fc, IL-15 analyte, single-cycle kinetics, 1:1 fit
human IL-15 [4] = target: T1, human IL-15; test: SPR, variant (additional production) captured on immobilised PD1, IL-15 analyte, single-cycle kinetics, 1:1 fit
human PD-1 [5] = target: T2, human PD-1 (human, UniProt Q15116 in part, limits assumed); test: SPR, variant as analyte over immobilised PD1 (avidity possible)
T2 construct: Recombinant protein used in SPR as analyte or amine-coupled ligand; also called PD1 antigen

human PD-1 [6] = target: T2, human PD-1; test: SPR, variant captured on protein A, PD1 analyte (impaired accessibility on chip noted)
T2 sequence (Q15116 25-167 limits assumed): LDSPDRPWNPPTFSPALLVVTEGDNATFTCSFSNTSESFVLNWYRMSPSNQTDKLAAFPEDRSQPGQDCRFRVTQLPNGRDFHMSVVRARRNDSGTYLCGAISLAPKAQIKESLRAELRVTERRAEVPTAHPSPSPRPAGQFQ
Procedure: as §1, with “The anti-human Fc capture surface was generated using a Series S Sensor Chip CM5 using the default parameters under the Immobilization Wizard in the Biacore T200 control software which was set to target 3000 resonance units (RUs).” left out
The first flow cell was left empty to use as a blank control. […] Buffer injections were performed for each analyte injection to be used for referencing.

human PD-1 [7] = target: T2, human PD-1; test: SPR, variant (additional production) captured on anti-human Fc, PD1 analyte

B1: RV30 (bispecific antibody, human IgG1, lambda)
heavy: QVQLVQSGVEVKKPGASVKVSCKASGYTFTNYYMYWVRQAPGQGLEWMGGINPSNGGTNFNEKFKNRVTLTTDSSTTTAYMELKSLQFDDTAVYYCARRDYRFDMGFDYWGQGTTVTVSSGGGGSGGGGSQVQLVQSGAEVKKPGASVKVSCKASGYSFSSFGISWVRQAPGQGLEWLGWISAFNGYTKYAQKFQDRVTMTTDTSTSTAYMELRSLRSDDTAVYYCARDPAAWPLQQSLAWFDPWGQGTMVTVSSASTKGPSVFPLAPSSKSTSGGTAALGCLVKDYFPEPVTVSWNSGALTSGVHTFPAVLQSSGLYSLSSVVTVPSSSLGTQTYICNVNHKPSNTKVDKKV[sequence of human IgG1 Fc with changes not given]
light: EIVLTQSPATLSLSPGERATLSCRASKGVSTSGYSYLHWYQQKPGQAPRLLIYLASYLESGVPARFSGSGSGTDFTLTISSLEPEDFAVYYCQHSRDLPLTFGGGTKVEIKGGGGSGGGGSQSVLTQPPSASGTPGQRVTISCSGSTSNLKRNYVYWYQQLPGTAPKLLIYRDRRRPSGVPDRFSGSKSGTSASLAISGLRSEDEADYYCAWYDRELSEWVFGGGTKLTVLQPKAAPSVTLFPPSSEELQANKATLVCLISDFYPGAVTVAWKADSSPVKAGVETTTPSKQSNNKYAASSYLSLTPEQWKSHRSYSCQVTHEGSTVEKTVAPTECS
notes: Dual variable domain format, IgG1 LALAPG; Two productions tested: RV30 (88.2 % main peak) and RV30* (97.4 %); also called RV30* (additional production)
- Kd (human IL-15 [1]): 0.077 nM
- Kd (human IL-15 [2]): 0.452 nM
- Kd (human IL-15 [3]): 0.0664 nM
- Kd (human IL-15 [4]): 0.85 nM

B2: RV17 (bispecific antibody, human IgG1, lambda)
heavy: QVQLVQSGAEVKKPGASVKVSCKASGYSFSSFGISWVRQAPGQGLEWLGWISAFNGYTKYAQKFQDRVTMTTDTSTSTAYMELRSLRSDDTAVYYCARDPAAWPLQQSLAWFDPWGQGTMVTVSSASTKGPSVFPLAPSSKSTSGGTAALGCLVKDYFPEPVTVSWNSGALTSGVHTFPAVLQSSGLYSLSSVVTVPSSSLGTQTYICNVNHKPSNTKVDKKV[sequence of human IgG1 Fc with changes not given]GGGGSGGGGSGGGGSGGGGSQVQLVQSGVEVKKPGASVKVSCKASGYTFTNYYMYWVRQAPGQGLEWMGGINPSNGGTNFNEKFKNRVTLTTDSSTTTAYMELKSLQFDDTAVYYCARRDYRFDMGFDYWGQGTTVTVSSGGSGGGSGGGSGGGSGGGSGEIVLTQSPATLSLSPGERATLSCRASKGVSTSGYSYLHWYQQKPGQAPRLLIYLASYLESGVPARFSGSGSGTDFTLTISSLEPEDFAVYYCQHSRDLPLTFGGGTKVEI
light: QSVLTQPPSASGTPGQRVTISCSGSTSNLKRNYVYWYQQLPGTAPKLLIYRDRRRPSGVPDRFSGSKSGTSASLAISGLRSEDEADYYCAWYDRELSEWVFGGGTKLTVLQPKAAPSVTLFPPSSEELQANKATLVCLISDFYPGAVTVAWKADSSPVKAGVETTTPSKQSNNKYAASSYLSLTPEQWKSHRSYSCQVTHEGSTVEKTVAPTECS
notes: Purity 66.9 % main peak
- Kd (human IL-15 [1]): 0.106 nM

B3: RV18 (bispecific antibody, human IgG1, lambda)
heavy: QVQLVQSGAEVKKPGASVKVSCKASGYSFSSFGISWVRQAPGQGLEWLGWISAFNGYTKYAQKFQDRVTMTTDTSTSTAYMELRSLRSDDTAVYYCARDPAAWPLQQSLAWFDPWGQGTMVTVSSASTKGPSVFPLAPSSKSTSGGTAALGCLVKDYFPEPVTVSWNSGALTSGVHTFPAVLQSSGLYSLSSVVTVPSSSLGTQTYICNVNHKPSNTKVDKKV[sequence of human IgG1 Fc with changes not given]GGGGSGGGGSGGGGSGGGGSEIVLTQSPATLSLSPGERATLSCRASKGVSTSGYSYLHWYQQKPGQAPRLLIYLASYLESGVPARFSGSGSGTDFTLTISSLEPEDFAVYYCQHSRDLPLTFGGGTKVEIKGGSGGGSGGGSGGGSGGGSGQVQLVQSGVEVKKPGASVKVSCKASGYTFTNYYMYWVRQAPGQGLEWMGGINPSNGGTNFNEKFKNRVTLTTDSSTTTAYMELKSLQFDDTAVYYCARRDYRFDMGFDYWGQGTTVTVSS
light: B2 light
notes: IgG1 LALAPG anti-IL-15 antibody with anti-PD1 scFv fused to the heavy chain C terminus; Purity 20.8 % main peak
- Kd (human PD-1 [5]): 0.215 nM
- Kd (human IL-15 [1]): 0.0769 nM
- Kd (human PD-1 [6]): 13 nM

B4: RV19 (bispecific antibody, human IgG1, lambda)
heavy: QVQLVQSGAEVKKPGASVKVSCKASGYSFSSFGISWVRQAPGQGLEWLGWISAFNGYTKYAQKFQDRVTMTTDTSTSTAYMELRSLRSDDTAVYYCARDPAAWPLQQSLAWFDPWGQGTMVTVSSASTKGPSVFPLAPSSKSTSGGTAALGCLVKDYFPEPVTVSWNSGALTSGVHTFPAVLQSSGLYSLSSVVTVPSSSLGTQTYICNVNHKPSNTKVDKKV[sequence of human IgG1 Fc with changes not given]GGGGSGGGGSGGGGSGGGGSQVQLVQSGVEVKKPGASVKVSCKASGYTFTNYYMYWVRQAPGQCLEWMGGINPSNGGTNFNEKFKNRVTLTTDSSTTTAYMELKSLQFDDTAVYYCARRDYRFDMGFDYWGQGTTVTVSSGGSGGGSGGGSGGGSGGGSGEIVLTQSPATLSLSPGERATLSCRASKGVSTSGYSYLHWYQQKPGQAPRLLIYLASYLESGVPARFSGSGSGTDFTLTISSLEPEDFAVYYCQHSRDLPLTFGCGTKVEI
light: B2 light
notes: Purity 85.6 % main peak
- Kd (human IL-15 [1]): 0.0847 nM

Now those with a lower Kd (human IL-15 [1]), led by results:

- Kd (human IL-15 [1]): 0.0664 nM
- Kd (human IL-15 [2]): 0.227 nM
B6: RV37 (bispecific antibody, human IgG1, lambda)
heavy: QVQLVQSGVEVKKPGASVKVSCKASGYTFTNYYMYWVRQAPGQGLEWMGGINPSNGGTNFNEKFKNRVTLTTDSSTTTAYMELKSLQFDDTAVYYCARRDYRFDMGFDYWGQGTTVTVSSGGGGSGGGGSGGGGSGGGGSQVQLVQSGAEVKKPGASVKVSCKASGYSFSSFGISWVRQAPGQGLEWLGWISAFNGYTKYAQKFQDRVTMTTDTSTSTAYMELRSLRSDDTAVYYCARDPAAWPLQQSLAWFDPWGQGTMVTVSSASTKGPSVFPLAPSSKSTSGGTAALGCLVKDYFPEPVTVSWNSGALTSGVHTFPAVLQSSGLYSLSSVVTVPSSSLGTQTYICNVNHKPSNTKVDKKV[sequence of human IgG1 Fc with changes not given]
light: EIVLTQSPATLSLSPGERATLSCRASKGVSTSGYSYLHWYQQKPGQAPRLLIYLASYLESGVPARFSGSGSGTDFTLTISSLEPEDFAVYYCQHSRDLPLTFGGGTKVEIKGGGGSGGGGSGGGGSGGGGSQSVLTQPPSASGTPGQRVTISCSGSTSNLKRNYVYWYQQLPGTAPKLLIYRDRRRPSGVPDRFSGSKSGTSASLAISGLRSEDEADYYCAWYDRELSEWVFGGGTKLTVLQPKAAPSVTLFPPSSEELQANKATLVCLISDFYPGAVTVAWKADSSPVKAGVETTTPSKQSNNKYAASSYLSLTPEQWKSHRSYSCQVTHEGSTVEKTVAPTECS
notes: Dual variable domain format, IgG1 LALAPG; Purity 71.4 % main peak

- Kd (human PD-1 [5]): 17.2 nM
- Kd (human PD-1 [7]): 3.99 nM
- Kd (human IL-15 [1]): 0.0519 nM
- Kd (human PD-1 [6]): 269 nM
- Kd (human IL-15 [3]): 0.0531 nM
- Kd (human IL-15 [4]): 0.169 nM
B5: RV20 (bispecific antibody, human IgG1, lambda)
heavy: QVQLVQSGAEVKKPGASVKVSCKASGYSFSSFGISWVRQAPGQGLEWLGWISAFNGYTKYAQKFQDRVTMTTDTSTSTAYMELRSLRSDDTAVYYCARDPAAWPLQQSLAWFDPWGQGTMVTVSSASTKGPSVFPLAPSSKSTSGGTAALGCLVKDYFPEPVTVSWNSGALTSGVHTFPAVLQSSGLYSLSSVVTVPSSSLGTQTYICNVNHKPSNTKVDKKV[sequence of human IgG1 Fc with changes not given]GGGGSGGGGSGGGGSGGGGSEIVLTQSPATLSLSPGERATLSCRASKGVSTSGYSYLHWYQQKPGQAPRLLIYLASYLESGVPARFSGSGSGTDFTLTISSLEPEDFAVYYCQHSRDLPLTFGCGTKVEIKGGSGGGSGGGSGGGSGGGSGQVQLVQSGVEVKKPGASVKVSCKASGYTFTNYYMYWVRQAPGQCLEWMGGINPSNGGTNFNEKFKNRVTLTTDSSTTTAYMELKSLQFDDTAVYYCARRDYRFDMGFDYWGQGTTVTVSS
light: B2 light
notes: IgG1 LALAPG; Two productions tested: RV20 (57.7 % main peak) and RV20* (96.5 %); also called RV20* (additional production)
